We go through 16 molecules from patent US20250163048A1 (Tango Therapeutics, Inc., priority 2022, published 2025).

In one test the test system is MTAP-deleted cell line. As to the kind of experiment: viability assay for the MTAP-deleted cell line. The class given is cell-based. The following applies: Homo sapiens, HAP1, viability assay.
Test [1] relates to HAP1 MTAP-intact cell line. As to the kind of experiment: SDMA in-cell western assay, HAP1 MTAP-intact. To be noted: Homo sapiens.
For test [2], the system named is HAP1 MTAP-deleted cell line. As to the kind of experiment: SDMA in-cell western assay, HAP1 MTAP-deleted. The following applies: for IC90 / IC50: Homo sapiens; for Hap1 MTAP intact/deleted ratio: IC50 ratio between HAP1 MTAP-intact and HAP1 MTAP-deleted cell line.
Setting [3] is: HAP1, read-out: Hap1 MTAP intact IC50, SDMA in-cell western, HAP1 MTAP-intact cell line.
Where [4] appears, read: HAP1, read-out: Hap1 MTAP deleted IC90, SDMA in-cell western, HAP1 MTAP-deleted cell line.
Where [5] appears, read: HAP1, read-out: Hap1 MTAP deleted IC50, SDMA in-cell western, HAP1 MTAP-deleted cell line.
Setting [6] is: HAP1, read-out: Hap1 MTAP intact IC50, SDMA in-cell western assay, HAP1 MTAP-intact cell line.
Setting [7] is: HAP1, read-out: Hap1 MTAP deleted IC50, SDMA in-cell western assay, HAP1 MTAP-deleted cell line.
[8] abbreviates: HAP1, read-out: Hap1 MTAP deleted IC90, SDMA in-cell western assay, HAP1 MTAP-deleted cell line.

Where two headings read alike, the source gives them in different places.

Take `C[C@H]1CC[C@H](c2ccc3sc(C4CC(C)(C)N(C)C(C)(C)C4)nc3c2)N(C(=O)C(=O)Nc2cncc3cn[nH]c23)C1` [Compound 85, 2-((2R,5S)-5-methyl-2-(2-(1,2,2,6,6-pentamethylpiperidin-4-yl)benzo[d]thiazol-5-yl)piperidin-1-yl)-2-oxo-N-(1H-pyrazolo[4,3-c]pyridin-7-yl)acetamide]: the half-maximal inhibitory concentration (IC50) was less than 0.1 µM in the test with MTAP-deleted cell line and 0.005 to 0.05 µM in test [1] (setting [3]). For the same molecule, the IC90 in test [2] (setting [4]) is less than 0.075 µM.

As for `C[C@H]1CC[C@H](c2ccc3sc(C4CCNCC4)nc3c2)N(C(=O)C(=O)Nc2cncc3cn[nH]c23)C1` [Compound 6, 2-oxo-N-(1H-pyrazolo[4,3-c]pyridin-7-yl)-2-[(5S)-5-methyl-2-[2-(4-piperidyl)-1,3-benzothiazol-5-yl]-1-piperidyl]acetamide], the IC50 was less than 0.1 µM in the test on MTAP-deleted cell line, 0.005 to 0.05 µM in test [1] (setting [3]) and 0.005 to 0.05 µM in test [2] (setting [5]). Also, in test [2] (setting [4]), the IC90 was less than 0.075 µM. Moreover, the “Hap1 MTAP intact/deleted ratio” value in test [2] (SDMA in-cell western) is “C (“C” indicates an IC50 ratio of less than 15 fold)”.

Consider `CC(C)n1ncc2cc([C@H]3CC[C@H](C)CN3C(=O)C(=O)Nc3cnc(N)c4cn[nH]c34)ccc21` (racemic) [Compound 266, N-(4-Amino-1H-pyrazolo[4,3-c]pyridin-7-yl)-2-oxo-2-[rac-(2R,5S)-2-(1-isopropylindazol-5-yl)-5-methyl-1-piperidyl]acetamide], for which the IC50 in the test on MTAP-deleted cell line was less than 0.1 µM; in test [1] (setting [6]), 0.005 to 0.05 µM; in test [2] (setting [7]), less than 0.005 µM. Further, the IC90 in test [2] (setting [8]) is less than 0.075 µM. The “Hap1 MTAP intact/deleted ratio” value in test [2] (SDMA in-cell western assay) is “C (“C” indicates an IC50 ratio of less than 15 fold)”.

In the case of `C[C@H]1CC[C@H](c2ccc3sc(CCN4CCCC4)nc3c2)N(C(=O)C(=O)Nc2cncc3cn[nH]c23)C1` [Compound 63, 2-((2R,5S)-5-methyl-2-(2-(2-(pyrrolidin-1-yl)ethyl)benzo[d]thiazol-5-yl)piperidin-1-yl)-2-oxo-N-(1H-pyrazolo[4,3-c]pyridin-7-yl)acetamide], the IC50 in the test on MTAP-deleted cell line was less than 0.1 µM; in test [1] (setting [3]), greater than 0.05 µM; in test [2] (setting [5]), less than 0.005 µM. Further, the IC90 in test [2] (setting [4]) was less than 0.075 µM. For the same molecule, the “Hap1 MTAP intact/deleted ratio” value in test [2] (SDMA in-cell western) is “A (“A” indicates an IC50 ratio greater than or equal to 30 fold)”.

Turning to `C[C@H]1CC[C@H](c2ccc3scnc3c2)N(C(=O)C(=O)Nc2cnc(N)c3c2COC3)C1` (racemic) [Compound 200, N-(4-amino-1,3-dihydrofuro[3,4-c]pyridin-7-yl)-2-oxo-2-[rac-(2R,5S)-2-(1,3-benzothiazol-5-yl)-5-methyl-1-piperidyl]acetamide], the IC50 in the test with MTAP-deleted cell line is less than 0.1 µM; in test [1] (HAP1, read-out: Hap1 MTAP intact IC50), greater than 0.05 µM; in test [2] (setting [7]), less than 0.005 µM. In addition, the IC90 in test [2] (setting [8]) was less than 0.075 µM. In test [2] (SDMA in-cell western assay), the “Hap1 MTAP intact/deleted ratio” value is reported as “B (“B” indicates an IC50 ratio greater than or equal to 15 fold but lower than 30 fold)”.

With `C[C@H]1CC[C@H](c2ccc3c(c2)CCC(=O)N3)N(C(=O)C(=O)Nc2cnc(N)c3cn[nH]c23)C1` (racemic) [Compound 218, N-(4-Amino-1H-pyrazolo[4,3-c]pyridin-7-yl)-2-oxo-2-[rac-(2R,5S)-5-methyl-2-(2-oxo-3,4-dihydro-1H-quinolin-6-yl)-1-piperidyl]acetamide], the values for the IC50 (with MTAP-deleted cell line; in test [1] (setting [6]); in test [2] (setting [7])) were less than 0.1 µM, greater than 0.05 µM and 0.005 to 0.05 µM, respectively. The “Hap1 MTAP intact/deleted ratio” value in test [2] (SDMA in-cell western assay) is reported as “C (“C” indicates an IC50 ratio of less than 15 fold)”.

On to `CCOc1cc([C@H]2CC[C@H](C)CN2C(=O)C(=O)Nc2cnc(N)c3cn[nH]c23)ccn1` (racemic) [Compound 187, N-(4-Amino-2H-pyrazolo[4,3-c]pyridin-7-yl)-2-oxo-2-[rac-(2R,5S)-2-(2-ethoxy-4-pyridyl)-5-methyl-1-piperidyl]acetamide], for which the figures for the IC50 (in the test on MTAP-deleted cell line; in test [1] (setting [3]); in test [2] (setting [5])) were less than 0.1 µM, 0.005 to 0.05 µM and less than 0.005 µM, respectively. Besides, the IC90 in test [2] (setting [4]) is less than 0.075 µM. Also, in test [2] (SDMA in-cell western), the “Hap1 MTAP intact/deleted ratio” value is “A (“A” indicates an IC50 ratio greater than or equal to 30 fold)”.

`C[C@H]1CC[C@H](c2ccc3sc(C4CCCN(C)C4)nc3c2)N(C(=O)C(=O)Nc2ccn3ccnc3c2)C1` (stereo partly drawn) [Compound 33, N-(imidazo[1,2-a]pyridin-7-yl)-2-((2R,5S)-5-methyl-2-(2-(1-methylpiperidin-3-yl)benzo[d]thiazol-5-yl)piperidin-1-yl)-2-oxoacetamide]: the IC50 with MTAP-deleted cell line was less than 0.1 µM; in test [1] (setting [3]), 0.005 to 0.05 µM; in test [2] (setting [5]) it was less than 0.005 µM. Also, the IC90 in test [2] (setting [4]) is less than 0.075 µM. Also, the “Hap1 MTAP intact/deleted ratio” value in test [2] (SDMA in-cell western) is listed as “C (“C” indicates an IC50 ratio of less than 15 fold)”.

For the molecule `C[C@H]1CC[C@H](c2ccn(C)n2)N(C(=O)C(=O)Nc2cnc(N)c3cn[nH]c23)C1` [Compound 201, N-(4-Amino-1H-pyrazolo[4,3-c]pyridin-7-yl)-2-oxo-2-[(2R,5S)-5-methyl-2-(1-methylpyrazol-3-yl)-1-piperidyl]acetamide], the IC50 in the test with MTAP-deleted cell line is less than 0.1 µM; in test [1] (setting [6]), 0.005 to 0.05 µM; in test [2] (setting [7]) it was less than 0.005 µM. In test [2] (setting [8]), the IC90 was less than 0.075 µM. In addition, the “Hap1 MTAP intact/deleted ratio” value in test [2] (SDMA in-cell western assay) was “C (“C” indicates an IC50 ratio of less than 15 fold)”.

`C[C@H]1CC[C@H](c2ccc3sc(C4CCN(C)CC4(C)C)nc3c2)N(C(=O)C(=O)Nc2cncc3cn[nH]c23)C1` (stereo partly drawn) [Compound 81, 2-((5S)-5-methyl-2-(2-(1,3,3-trimethylpiperidin-4-yl)benzo[d]thiazol-5-yl)piperidin-1-yl)-2-oxo-N-(1H-pyrazolo[4,3-c]pyridin-7-yl)acetamide]: the IC50 in the test with MTAP-deleted cell line was less than 0.1 µM; in test [1] (setting [3]), 0.005 to 0.05 µM; in test [2] (setting [5]), less than 0.005 µM. Also, the concentration for an effect of 90% (IC90) in test [2] (setting [4]) was less than 0.075 µM. Besides, in test [2] (SDMA in-cell western), the “Hap1 MTAP intact/deleted ratio” value was “B (“B” indicates an IC50 ratio greater than or equal to 15 fold but lower than 30 fold)”.

With `C[C@H]1CC[C@H](C2CCC(F)(F)CC2)N(C(=O)C(=O)Nc2cnc(N)c3cn[nH]c23)C1` (racemic) [Compound 220, N-(4-Amino-2H-pyrazolo[4,3-c]pyridin-7-yl)-2-oxo-2-[rac-(2R,5S)-2-(4,4-difluorocyclohexyl)-5-methyl-1-piperidyl]acetamide], the IC50 in the test with MTAP-deleted cell line is less than 0.1 µM; in test [1] (setting [6]), greater than 0.05 µM; in test [2] (setting [7]), 0.005 to 0.05 µM. Further, the “Hap1 MTAP intact/deleted ratio” value in test [2] (SDMA in-cell western assay) is on record as “B (“B” indicates an IC50 ratio greater than or equal to 15 fold but lower than 30 fold)”.

For the molecule `CCn1cc2cc([C@H]3CC[C@H](C)CN3C(=O)C(=O)Nc3cnc(N)c4cn[nH]c34)ccc2n1` (racemic) [Compound 262, N-(4-Amino-1H-pyrazolo[4,3-c]pyridin-7-yl)-2-oxo-2-[rac-(2R,5S)-2-(2-ethylindazol-5-yl)-5-methyl-1-piperidyl]acetamide], the IC50 is less than 0.1 µM in the test on MTAP-deleted cell line, 0.005 to 0.05 µM in test [1] (setting [6]) and less than 0.005 µM in test [2] (setting [7]). Besides, the IC90 in test [2] (setting [8]) is less than 0.075 µM. The “Hap1 MTAP intact/deleted ratio” value in test [2] (SDMA in-cell western assay) is “C (“C” indicates an IC50 ratio of less than 15 fold)”.

Regarding `C[C@H]1CC[C@H](c2ccc3cn(C4CCN(C)CC4)nc3c2)N(C(=O)C(=O)Nc2cncc3c(N)nccc23)C1` [Compound 1, N-(8-amino-2,7-naphthyridin-4-yl)-2-oxo-2-[(2R,5S)-5-methyl-2-[2-(1-methyl-4-piperidyl)indazol-6-yl]-1-piperidyl]acetamide], the figures for the IC50 (in the test with MTAP-deleted cell line; in test [1] (setting [3]); in test [2] (setting [5])) were less than 0.1 µM, greater than 0.05 µM and less than 0.005 µM, respectively. Moreover, the IC90 in test [2] (setting [4]) is less than 0.075 µM. Also, the “Hap1 MTAP intact/deleted ratio” value in test [2] (SDMA in-cell western) is given as “A (“A” indicates an IC50 ratio greater than or equal to 30 fold)”.

For `CC[C@H]1CC[C@H](C)CN1C(=O)C(=O)Nc1cnc(N)c2cnn(C)c12` [Compound 281, N-(4-Amino-1-methyl-pyrazolo[4,3-c]pyridin-7-yl)-2-oxo-2-[(2S,5S)-2-ethyl-5-methyl-1-piperidyl]acetamide], the IC50 with MTAP-deleted cell line was greater than 1 µM; in test [1] (setting [6]), greater than 0.05 µM; in test [2] (setting [7]), greater than 0.05 µM. For the same molecule, the IC90 in test [2] (setting [8]) was greater than 0.125 µM. Further, in test [2] (SDMA in-cell western assay), the “Hap1 MTAP intact/deleted ratio” value is listed as “C (“C” indicates an IC50 ratio of less than 15 fold)”.

Turning to `C[C@H]1CC[C@H](c2ccc3c(c2)CCN(C)C3(C)C)N(C(=O)C(=O)Nc2cnc(N)c3cn[nH]c23)C1` (racemic) [Compound 221, N-(4-Amino-2H-pyrazolo[4,3-c]pyridin-7-yl)-2-oxo-2-[rac-(2R,5S)-5-methyl-2-(1,1,2-trimethyl-3,4-dihydroisoquinolin-6-yl)-1-piperidyl]acetamide], the results for the IC50 (with MTAP-deleted cell line; in test [1] (setting [6]); in test [2] (setting [7])) were less than 0.1 µM, greater than 0.05 µM and 0.005 to 0.05 µM, respectively. Moreover, the IC90 in test [2] (setting [8]) is less than 0.075 µM. Besides, in test [2] (SDMA in-cell western assay), the “Hap1 MTAP intact/deleted ratio” value was “B (“B” indicates an IC50 ratio greater than or equal to 15 fold but lower than 30 fold)”.

For the molecule `C[C@H]1CC[C@H](c2ccc3sc([C@@H]4CCN(C)C(C)(C)C4)nc3c2)N(C(=O)C(=O)Nc2cncc3c(N)nccc23)C1` (single isomer, unassigned) [Compound 68], the IC50 with MTAP-deleted cell line was less than 0.1 µM; in test [1] (setting [3]), greater than 0.05 µM; in test [2] (setting [5]) it was less than 0.005 µM. Also, in test [2] (setting [4]), the IC90 is less than 0.075 µM. In test [2] (SDMA in-cell western), the “Hap1 MTAP intact/deleted ratio” value is “A (“A” indicates an IC50 ratio greater than or equal to 30 fold)”.
